We go through 25 compounds from PubChem BioAssay AID1234 (University of Pittsburgh Molecular Library Screening Center, 2008).

This is one part of the list. The main result of the screen is listed elsewhere. These columns were measured beside it and carry no call.

This experiment in a line: compounds producing H2O2 with reducing agent – biochemical, 10-point concentration response, NIH library profiling, artefact control for MLSCN library redox annotation, dose response (AID 1234). To be noted: DTT-dependent redox cycling H2O2, phenol red-HRP absorbance; H2O2 generation; at 50 µM; stronger effect = higher value.
With `O=C1C(Nc2ccccc2)=C/C(=N/S(=O)(=O)c2cccs2)c2ccccc21`, the activation amounted to 0.22%.

Regarding `O=C1C(=O)c2ccc(-c3ccccc3)cc2-c2ccccc21`, the activation was found to be 108%.

On to `CC(NC(=O)COC(=O)c1ccc([N+](=O)[O-])s1)c1ccccc1` (stereo not given), for which the activation was -0.94%.

On to `CCCc1nc2c(=O)n(C)c(=O)nc-2n(C)n1`, for which the activation was found to be 111%.

In the case of `CCCCn1c(NC(=O)c2ccccc2Cl)c(C#N)c2nc3ccccc3nc21`, the activation was 127%.

On to `Cc1ccc(C(=O)c2c(C)oc3c2C(=O)C(=O)c2ccccc2-3)cc1`, for which the activation was -0.96%.

`COC1=C(N)C(=O)c2nc(-c3nc(C(=O)O)c(C)c(-c4ccc(OC)c(OC)c4O)c3N)ccc2C1=O`: the activation came out at 122%.

As to `NC(=O)C1CCN(C2=C(Cl)C(=O)c3ccccc3C2=O)CC1`, the activation was -1.77%.

As to `CCOC(=O)N1CCN(c2cc(NCCC(=O)O)c3c4c(onc24)-c2ccccc2C3=O)CC1`, the activation was -1%.

Regarding `CCOc1ccc(NC(=S)Nc2ccc3nsnc3c2)cc1`, the activation came to 90.2%.

On to `CCOC(=O)c1c2c(n(C)c1C)C(=O)C(=O)c1ccc(Br)cc1-2`, for which the activation was 115%.

For the compound `CC1(C)CC(=O)C=C(N2CCNCC2)C1`, the activation is -0.68%.

Regarding `O=C1C=C(NCCN2CCOCC2)C(=O)c2cnccc21`, the activation is -0.13%.

For the compound `CC(=O)Nc1cc(OC(C)=O)c2nonc2c1OC(C)=O`, the activation amounted to 133%.

`COc1ccc(CN2C(=O)c3cccnc3C2O)cc1` (stereo not given): the activation is -0.04%.

Take `CCOc1ccc2c(=O)c(Oc3ccccc3)c(C)oc2c1`: the activation was -0.92%.

Consider `Oc1ccc(-c2onc(C(F)(F)F)c2-c2cscn2)c(O)c1`, for which the activation was -1.17%.

With `O=C1C=C(N(CCO)Cc2ccccc2)c2ccccc2C1=O`, the activation is 116%.

On to `O=C(NN=C1CCCC1)c1n[nH]c2c1CCCC2`, for which the activation is -1.68%.

For `CC(C)c1ccc(S(=O)(=O)/N=C2/C=C(Sc3ncn[nH]3)C(=O)c3ccccc32)cc1`, the activation was determined as 121%.

`O=C(COC(=O)c1ccc([N+](=O)[O-])s1)NCc1ccccc1`: the activation was 71.1%.

`Cc1ccc(S(=O)(=O)/N=C2/C=C(Sc3ncn[nH]3)C(=O)c3ccccc32)cc1`: the activation was found to be 116%.

For the compound `Cn1nc(-c2ccc(Cl)cc2)nc2c(=O)n(C)c(=O)nc1-2`, the activation stood at 111%.

On to `CCCCn1c(NS(=O)(=O)c2ccc(C)cc2)c(S(=O)(=O)c2ccccc2)c2nc3ccccc3nc21`, for which the activation came to 127%.

In the case of `O=C(O)c1ccc(NC2=C/C(=N/S(=O)(=O)c3ccccc3)c3ccccc3C2=O)cc1`, the activation is 127%.
